About 2,100 (0.72%) of roughly 290,000 compounds were called active. The shares of active, inactive and inconclusive entries below differ from those in the screen. Calls follow the shape of the dose curve; as a rule, active = well fitted inhibition curve with a large enough effect; inconclusive = small, poorly fitted or top-dose-only effect, or effect the other way; inactive = flat fitted curve, though single readings scatter. Where the call is inconclusive, the potency comes from a doubtful curve fit.
Target: Fructose-bisphosphate aldolase (Giardia intestinalis (strain ATCC 50803 / WB clone C6)) (UniProt A8B2U2)
Assay: qHTS Assay for Inhibitors of Fructose-1,6-bisphosphate Aldolase from Giardia Lamblia; also: nearly all actives have a fitted effect of over 55% in size
Conditions: purified Giardia FBPA; series mostly up to 59.6 µM
Outline: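 Giardia FBPA (40 nM reagent) was preincubated 10 min at RT with compound (up to 57.5 uM final), then substrate plus GAPDH/TPI/NAD/arsenate coupling system with diaphorase/resazurin was added; resorufin fluorescence (525/598 nm) was read after 20 min.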
Potency is read from the fitted curve at half-maximal effect; tags tell the direction and shape of the fitted curve.

UniProt A8B2U2, sequence (A8B2U2 whole entry, looked up): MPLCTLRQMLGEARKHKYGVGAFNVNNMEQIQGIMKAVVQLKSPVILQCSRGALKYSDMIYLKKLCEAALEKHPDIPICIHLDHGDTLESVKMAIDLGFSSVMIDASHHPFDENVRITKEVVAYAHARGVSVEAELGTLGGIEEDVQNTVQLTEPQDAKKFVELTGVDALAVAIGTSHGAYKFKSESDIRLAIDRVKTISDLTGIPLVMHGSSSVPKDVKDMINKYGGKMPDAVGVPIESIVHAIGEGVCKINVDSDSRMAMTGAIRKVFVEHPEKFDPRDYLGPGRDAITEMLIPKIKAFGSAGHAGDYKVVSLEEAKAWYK

With `O=c1c2cn[nH]c2[nH]c(=S)n1-c1ccccc1` as the compound, how does the Potency read?
Its Potency is inconclusive: 9.98 µM [inhibitor, partial curve].

Which Potency does the source give for `COC(=O)C1=C(C)NC(C)=C(C(=O)OCCN(C)Cc2ccccc2)C1c1cccc([N+](=O)[O-])c1` (configuration not stated) here?
The Potency was “inactive”.

How did the Potency turn out when `CCOC(=O)c1cc(NC(=O)c2ccc(C)cc2)c(=O)oc1C(F)(F)F` was run?
The Potency was “inactive”.

With `O=C(Nc1cccc2nsnc12)c1ccc(-c2cccc(Cl)c2)o1` as the compound, how does the Potency read?
The Potency was inconclusive: 17.7 µM [inhibitor, single point].

`Cc1cc(=O)n2[nH]c(-c3ccsc3-n3c(C)ccc3C)cc2n1` was tested. Which Potency did it give?
Its Potency is inconclusive: 15.8 µM [inhibitor, single point].

`O=C(Cc1ccc(-c2ccccc2)cc1)Nc1ccccc1` was tested. Which Potency did it give?
Its Potency is “inactive”.

How did the Potency turn out when `COc1ccc(Cn2c(=S)[nH]c3cc(C(=O)N4CCCCC4)ccc3c2=O)cc1` was run?
The Potency was inconclusive: 17.8 µM [inhibitor, partial curve, poor fit].

With `CCN1C(=O)c2cccc3cccc1c23` as the compound, how does the Potency read?
Its Potency is inconclusive: 17.7 µM [inhibitor, single point].

`Cn1nccc1NC(=O)c1nccnc1C(=O)O` was tested. Which Potency did it give?
The Potency was inconclusive: 31.5 µM [inhibitor, single point].

With `COc1cc2c(C#N)c(N3CCc4ccccc4C3)nc(N)c2c(N)n1` as the compound, how does the Potency read?
The Potency was active: 1.77 µM.

Which Potency does the source give for `CC(C)N(CCNCC(O)COc1ccc(C(C)(C)c2ccccc2)cc1)C(C)C` (configuration not stated) here?
The Potency was inconclusive: 22.3 µM [inhibitor, partial curve].

Which Potency does the source give for `Cc1nn(C)cc1-c1n[nH]c(=S)n1-c1ccc(F)cc1` here?
The Potency was inconclusive: 15.8 µM [inhibitor, partial curve].

For `O=S1(=O)N=C(N/N=C/c2ccccn2)c2ccccc21`, which Potency is on record?
The Potency was inconclusive: 5.61 µM [inhibitor, single point].

With `CCOc1ccc2nc(NC(=O)CSc3nc(-c4ccccc4)c(C#N)c(=O)[nH]3)sc2c1` as the compound, how does the Potency read?
Its Potency is inconclusive: 17.7 µM [activator, single point].

For `COc1cc(C)c(-c2cc(C(=O)O)c(C)o2)cc1C(C)C`, which Potency is on record?
The Potency was inconclusive: 15.8 µM [activator, partial curve].

For `COc1ccccc1OCCCC(=O)NCc1ccco1`, which Potency is on record?
Its Potency is “inactive”.

`CC(NCC(O)COc1ccc2ccccc2c1)c1ccccc1` (configuration not stated) was tested. Which Potency did it give?
Its Potency is inconclusive: 15.8 µM [inhibitor, partial curve].

Which Potency does the source give for `Cc1ccc(NC(=O)c2ccccc2NC(=O)c2cccs2)cc1` here?
Its Potency is “inactive”.

`COc1ccc(OCC(=O)NNC(=O)c2ccccn2)cc1` was tested. Which Potency did it give?
The Potency was active: 15.8 µM.

For `CN(/N=C/c1ccc2c(c1)OCO2)c1nc(N2CCOCC2)nc(N2CCOCC2)n1`, which Potency is on record?
The Potency was “inactive”.

Which Potency does the source give for `Cc1ccc2[nH]c(C)cc(=S)c2c1` here?
The Potency was inconclusive: 31.5 µM [inhibitor, single point].

With `COc1cc(/C=N/Nc2nc(C)cc(=O)[nH]2)cc(OC)c1O` as the compound, how does the Potency read?
Its Potency is inconclusive: 11.2 µM [inhibitor, partial curve].

How did the Potency turn out when `CC(C)c1nc2sc3c(=O)[nH]c(=S)[nH]c3c2c2c1CCC2` was run?
Its Potency is inconclusive: 5 µM [inhibitor, single point].

For `CC(=O)c1ccc(NC(=O)CN2CCOCC2)cc1`, which Potency is on record?
Its Potency is inconclusive: 14.1 µM [inhibitor, single point].

For `O=C(Oc1ccc[nH]c1=O)c1cc([N+](=O)[O-])cc([N+](=O)[O-])c1`, which Potency is on record?
The Potency was inconclusive: 1.12 µM [inhibitor, full curve].

How did the Potency turn out when `Cn1c(CSc2nc3ccccc3s2)n[nH]c1=S` was run?
The Potency was “inactive”.

For `Cc1cc(C)c2nc(N3CCC(C(=O)N4CCN(C(=O)c5ccco5)CC4)CC3)sc2c1`, which Potency is on record?
Its Potency is “inactive”.

Which Potency does the source give for `C=CCNCC(=O)N1N=C(c2ccc3ccccc3c2)CC1c1ccc(OC)cc1` (configuration not stated) here?
Its Potency is inconclusive: 17.7 µM [inhibitor, partial curve].

How did the Potency turn out when `O=S(=O)(N/N=C/c1ccc2c(c1)OCCO2)c1ccccc1` was run?
Its Potency is “inactive”.

For `C=CCNC(=S)Nc1ccc(N(C)C)cc1`, which Potency is on record?
The Potency was “inactive”.

Which Potency does the source give for `CCCCc1ccc(Nc2nc(N3CCOCC3)nc(N3CCOCC3)n2)cc1` here?
The Potency was inconclusive: 39.8 µM [inhibitor, single point].

`O=C1N=c2ccc([N+](=O)[O-])cc2=C1c1sc(=O)[nH]c1O` was tested. Which Potency did it give?
Its Potency is inconclusive: 28.2 µM [inhibitor, single point].

With `Cc1ccsc1C1C(C#N)=C(N)N(N(C)C)C2=C1C(=O)CCC2` (configuration not stated) as the compound, how does the Potency read?
The Potency was inconclusive: 19.9 µM [inhibitor, partial curve].

`Fc1ccc(CNCc2ccco2)cc1` was tested. Which Potency did it give?
The Potency was inconclusive: 15.8 µM [inhibitor, partial curve].

Which Potency does the source give for `O=C1/C(=C/c2ccncc2)SC(=S)N1N1CCOCC1` here?
The Potency was inconclusive: 15.8 µM [inhibitor, single point].

Which Potency does the source give for `COc1cc2c(c(OC)c1OC)C(c1ccc(O)cc1)CC(=O)O2` (configuration not stated) here?
The Potency was inconclusive: 28.1 µM [inhibitor, partial curve].

How did the Potency turn out when `COC(=O)C1=C(O)/C(=C\c2ccc(CNC(=O)C(=O)Nc3ccc(C)cc3)o2)N=C1C` was run?
Its Potency is inconclusive: 14.1 µM [inhibitor, partial curve].

With `c1ccc(-c2nc(CSc3nnnn3-c3ccccc3)cs2)cc1` as the compound, how does the Potency read?
The Potency was “inactive”.

Which Potency does the source give for `COc1cc(CN2CCN(c3ccccc3F)CC2)c([N+](=O)[O-])cc1OC` here?
Its Potency is inconclusive: 5 µM [inhibitor, partial curve].

How did the Potency turn out when `COC(=O)c1ccc(N2CCC(c3cc(-c4ccc(OC)cc4)n[nH]3)CC2)c([N+](=O)[O-])c1` was run?
The Potency was “inactive”.

`CCOC(=O)c1ccc2c(c1)N(CC)C(=O)c1ccccc1S2` was tested. Which Potency did it give?
The Potency was “inactive”.

Which Potency does the source give for `Cc1ccc(S(=O)(=O)Nc2cc(C)cn(Cc3ccccc3)c2=O)cc1` here?
Its Potency is active: 12.6 µM.

For `COC(=O)CN1C(=O)C2(C(C#N)=C(N)Oc3n[nH]c(-c4cccs4)c32)c2ccccc21` (configuration not stated), which Potency is on record?
The Potency was inconclusive: 31.6 µM [inhibitor, single point].

`CC12CCC=CC1C(c1ccc3ccccc3c1Br)N(Cc1ccccc1)C2=O` (configuration not stated) was tested. Which Potency did it give?
The Potency was “inactive”.

How did the Potency turn out when `Cc1ccc(CNc2ncc(-c3ccccc3)n2C)o1` was run?
The Potency was inconclusive: 4.46 µM [inhibitor, partial curve].

`COc1cc(CN2CCN(Cc3ccc(C)cc3)C(CCO)C2)cc(OC)c1O` (configuration not stated) was tested. Which Potency did it give?
The Potency was inconclusive: 7.92 µM [inhibitor, partial curve].

With `O=C(CSc1nc2ccc(Cl)cc2[nH]1)NC1CCCc2ccccc21` (configuration not stated) as the compound, how does the Potency read?
The Potency was inconclusive: 19.9 µM [inhibitor, partial curve].

How did the Potency turn out when `COc1cccc2cc(C(=O)C3=C(O)C(=O)N(c4cc(C)on4)C3c3cccs3)oc12` (configuration not stated) was run?
The Potency was inconclusive: 35.5 µM [inhibitor, single point].

How did the Potency turn out when `O=C(CN1CCCC1)Nc1ccc(OC(F)(F)F)cc1` was run?
Its Potency is inconclusive: 11.2 µM [inhibitor, partial curve].

Which Potency does the source give for `CCOc1ccccc1CN(CCc1ccc2c(c1)OCO2)Cc1ccccn1` here?
The Potency was inconclusive: 19.9 µM [inhibitor, single point].

`CCCOc1ccc(-c2nnc(-c3cccs3)o2)cc1` was tested. Which Potency did it give?
Its Potency is “inactive”.

With `CCCCn1c(SCc2ccc(C(=O)OC)o2)nc2cc(S(N)(=O)=O)ccc21` as the compound, how does the Potency read?
The Potency was inconclusive: 15.8 µM [inhibitor, partial curve].

`COc1cc(S(=O)(=O)N(Cc2cccnc2)Cc2cccc(OC)c2OC)ccc1-n1cnnn1` was tested. Which Potency did it give?
Its Potency is inconclusive: 22.3 µM [inhibitor, single point].

How did the Potency turn out when `CCCCCOC(=O)c1ccc(NC(=O)c2ccco2)cc1` was run?
Its Potency is “inactive”.

Which Potency does the source give for `CC(C)CN1CCNC(=O)C1CC(=O)NCc1cnn(-c2cccc(F)c2)c1` (configuration not stated) here?
The Potency was inconclusive: 25.1 µM [inhibitor, single point].

With `COC(=O)c1ccc(N2NC(=O)/C(=C/c3cc(OC)c(OC)c(OC)c3)C2=O)cc1` as the compound, how does the Potency read?
Its Potency is “inactive”.

`CCn1c(C)cc(/C=C2/SC(=O)N(C(C)C(=O)OC)C2=O)c1C` (configuration not stated) was tested. Which Potency did it give?
Its Potency is “inactive”.

With `C=CCN(CC=C)C(=S)NC(=O)c1ccc([N+](=O)[O-])cc1` as the compound, how does the Potency read?
Its Potency is inconclusive: 2.81 µM [inhibitor, full curve].

With `O=C(NCCCn1ccnc1)c1noc2c1CCc1ccccc1-2` as the compound, how does the Potency read?
Its Potency is inconclusive: 2.23 µM [inhibitor, full curve].

Which Potency does the source give for `CC(C)(C)c1ccc(-c2nc(C#N)c(N3CCC(C(N)=O)CC3)o2)cc1` here?
The Potency was “inactive”.

Which Potency does the source give for `O=[N+]([O-])c1ccc(N/N=C/c2ccc[nH]2)cc1` here?
The Potency was active: 17.7 µM.

How did the Potency turn out when `CCC(C)c1ccccc1OCCCNC1CCCC1` (configuration not stated) was run?
The Potency was inconclusive: 11.2 µM [inhibitor, partial curve].

Which Potency does the source give for `CCNC(=S)NS(=O)(=O)c1ccc(CC)cc1` here?
The Potency was active: 6.29 µM.

With `Nc1ncnc(Sc2ncccn2)c1[N+](=O)[O-]` as the compound, how does the Potency read?
Its Potency is active: 17.7 µM.

Which Potency does the source give for `O=C(/C=C/c1ccco1)NC(=S)Nc1ccccc1N1CCOCC1` here?
Its Potency is “inactive”.

How did the Potency turn out when `COc1ccccc1OCCSc1ncnc2nc[nH]c12` was run?
The Potency was “inactive”.

With `Cc1cc(CNC(=S)Nc2ccc(S(=O)(=O)Nc3ncccn3)cc2)nn1C` as the compound, how does the Potency read?
The Potency was inconclusive: 28.2 µM [inhibitor, partial curve].

For `Cc1nc2cc(-c3ccc(Br)cc3)[nH]n2c(=O)c1Cl`, which Potency is on record?
The Potency was inconclusive: 17.8 µM [inhibitor, partial curve].

With `CN(C)CCN1C(=O)C(=O)/C(=C(/O)c2ccc3c(c2)OCCO3)C1c1ccccn1` (configuration not stated) as the compound, how does the Potency read?
Its Potency is inconclusive: 22.3 µM [inhibitor, single point].

For `O=C1C2CC=C(Cl)CC2C(=O)N1CCCCCCN1C(=O)C2CC=C(Cl)CC2C1=O` (configuration not stated), which Potency is on record?
Its Potency is inconclusive: 15.8 µM [inhibitor, single point].

Which Potency does the source give for `Cc1ccc(/C=[N+](\[O-])c2ccc(N(C)C)cc2)c2nsnc12` here?
Its Potency is inconclusive: 11.2 µM [inhibitor, partial curve].

For `COC1[C@@H](OC)C[C@H](C)[C@@H](OC)C2=CC(=O)C=C(NC(=O)/C(C)=C/C=C\[C@H](OC)[C@@H](OC(N)=O)/C(C)=C/[C@@H]1C)C2=O` (some centres not stated), which Potency is on record?
The Potency was inconclusive: 17.7 µM [inhibitor, partial curve].

— PubChem BioAssay AID2451 (National Center for Advancing Translational Sciences (NCATS), 2010)
